Results reported in PubChem BioAssay (NCATS).
Several values for one entry are separate records, joined by “and”; a condition that tells them apart may be missing. Identical values can stand only once. Inconclusive means that the source gave no clear call. Such entries were picked first, then a sample of the others. For some assays here: Where the call is inconclusive, the potency comes from a doubtful curve fit. The source holds several records for some structures; these can differ, active in one and inactive in another. Activity calls are given as the source filed them. Unless noted, the call rests on the fitted dose curve; in most records, active means well fitted curve in the direction sought with a large enough effect; inconclusive means small, poorly fitted or top-dose-only effect, or another doubt; inactive means no such curve, though single readings can be large; an effect the other way counts as inactive or inconclusive.

Key:
[1] = qHTS for differential inhibitors of proliferation of Plasmodium falciparum line D10 (AID 1877);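 further: parasites grown with compound for 72 h before DNA staining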; further: potency means the concentration at half of the fitted maximal effect;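 on activity change, negative = inhibition: plate controls were vehicle wells for no effect and reference inhibitor wells for full effect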
[2] = molecular target: Ubiquitin carboxyl-terminal hydrolase 1 (Homo sapiens) (UniProt O94782); experiment: Inhibitors of USP1/UAF1: Pilot qHTS (AID 504865);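 further: rhodamine fluorescence freed from ubiquitin-rhodamine substrate followed over time; potency means the concentration at half of the fitted maximal effect; nearly all actives have a fitted effect of over 35% in size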
Outline: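 USP1/UAF1 complex (1nM) preincubated with compound 15 min at room temperature, then Ub-Rho substrate (150nM final) added. Fluorescence read kinetically at 480/540 nm, 6 reads every 60 seconds. Buffer: 50mM HEPES pH 7.8, 0.5mM EDTA, 0.1 mg/ml BSA, 1mM TCEP, 0.01% Tween-20.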

[3] = qHTS for Inhibitors of ATXN expression: Validation (AID 588378); further: nearly all actives have a fitted effect of over 75% in size; further: potency means the concentration at half of the fitted maximal effect; on activity change, negative = inhibition: on the % scale 0 is the no-effect control and ±100 the full control effect
Outline: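 Luminescence from an ATXN2-FFLuc reporter in HEK293 cells served as read-out after 24 h compound treatment at 37 degrees C; CellTiter-Fluor fluorescence was recorded first to assess viability.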

[4] = molecular target: Glutaminase kidney isoform, mitochondrial (Homo sapiens) (UniProt O94925); experiment: qHTS for Inhibitors of Glutaminase (GLS): LOPAC Validation (AID 624146); further: potency means the concentration at half of the fitted maximal effect; nearly all actives have a fitted effect of over 60% in size
Outline: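 Human kidney-isoform GLS in 45 mM KH2PO4 pH 8.2, 0.02% Tween-20, with compound, started with 1mM L-Glutamine (added stock). Glutamate oxidase/HRP/Amplex red coupled fluorescence read at start and after 30 min at RT.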

[5] = molecular target: Papain (Carica papaya) (UniProt P00784); experiment: Primary qHTS assay for inhibitors of the protease papain (AID 1645873);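 further: papain turnover of Z-FR-AMC read as the AMC fluorescence gain over 10 min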; further: potency means the concentration at half of the fitted maximal effect; on activity change, negative = inhibition: on the % scale 0 is the no-effect control and ±100 the full control effect
[6] = Stat Signaling Pathway (AID 446; active means well fitted curve in either direction with a large enough effect, not every such curve was filed as active; inconclusive means small, poorly fitted or top-dose-only effect, or another doubt;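 further: ME-180 cervical cancer cells given 40 pM IL-6 alongside compound; SIE-controlled beta-lactamase reporter measured as 460/530 nm FRET emission ratio; top concentration of the series differs between compounds; on the % scale 0 is the no-effect control and ±100 the full control effect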); settings: ME-180 SIE beta-lactamase reporter, IL-6 stimulated, 5 h; at 38 µM (top of the series)
Outline: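 ME-180 cells carrying a SIE-driven beta-lactamase reporter are stimulated with 40 pM IL-6 for 5 h at 37C in the presence of compound. The 460/530 nm FRET substrate ratio is read after 2.5 h at RT. Data are normalised to 300 pM IL-6 and to 125 nM JAK inhibitor controls.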

[7] = molecular target: Endonuclease 4 (Escherichia coli (strain K12)) (UniProt P0A6C1); experiment: Counterscreen for APE1 Inhibitors: qHTS Validation Assay for Inhibitors of Endonuclease IV (AID 1708); further: potency means the concentration at half of the fitted maximal effect
Outline: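 Concentration-response counterscreen run identically to the APE1 assay: 15 min room-temperature preincubation of 2 nM enzyme with compound, reaction started with 50 nM quenched abasic DNA, progress taken from kinetic fluorescence.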

[8] = Quantitative high throughput screen for delayed death inhibitors of the malarial parasite plastid, 96 hour incubation (AID 488745); further: nearly all actives have a fitted effect of over 70% in size; further: potency means the concentration at half of the fitted maximal effect
Outline: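 Luciferase-expressing P. falciparum in erythrocytes (2% hematocrit, 0.1% parasitemia) incubated with compound for 96 h at 37 C, 5% CO2, in RPMI 1640 with 0.5% Albumax. Growth inhibition read as decreased luminescence.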

[9] = molecular target: Thioredoxin reductase 1, cytoplasmic (Rattus norvegicus) (UniProt O89049); experiment: qHTS Assay for Inhibitors of Mammalian Selenoprotein Thioredoxin Reductase 1 (TrxR1) (AID 488773); settings: Potency: inhibition; further: nearly all actives have a fitted effect of over 40% in size; further: potency means the concentration at half of the fitted maximal effect
Outline: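 Steps: enzyme (90 nM) plus NADPH (400 uM final), 5 min at ~22 deg C; compound added, 15 min; selenite (400 uM final) added; fluorescence followed for 8 min. Concentration-response curves derived from the normalized delta values.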

[10] = qHTS for Inhibitors of ATXN expression: Validation of Cytotoxic Assay (AID 588349); further: potency means the concentration at half of the fitted maximal effect
Outline: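 HEK293 cells treated with titrated compound for 72 hr at 37 degrees C; viability read as intracellular ATP by CellTiter Glo luminescence.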

[11] = molecular target: Mitogen-activated protein kinase 10 (Mus musculus) (UniProt Q61831); experiment: JNK3 AlphaScreen Assay (AID 530; active means well fitted curve in either direction with a large enough effect, not every such curve was filed as active; inconclusive means small, poorly fitted or top-dose-only effect, or another doubt;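 further: kinase came from lysate of stimulated human HepG2 cells; signal reports phosphorylation of biotinylated GST-cJun 1-79 at Ser73 with 10 µM ATP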; further: potency means the concentration at half of the fitted maximal effect); settings: JNK3 lysate, c-Jun phosphorylation; activity change, negative = inhibition: at 57.1 µM (top of the series)
Outline: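 Inhibitors reduce antibody binding to phosphorylated biotin-cJun, lowering AlphaScreen luminescence. Lysates from HepG2 cells pre-activated by IL-1beta plus TNF-alpha supplied JNK3; compounds were titrated.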

[12] = molecular target: Muscarinic acetylcholine receptor M1 (Rattus norvegicus) (UniProt P08482); experiment: qHTS Assay for Antagonists of Acetylcholine Muscarinic M1 Receptor: Measurement of IP-One Response (AID 944); further: nearly all actives have a fitted effect of over 75% in size; further: potency means the concentration at half of the fitted maximal effect
[13] = molecular target: Phospholipid hydroperoxide glutathione peroxidase GPX4 (Homo sapiens) (UniProt P36969); experiment: Primary qHTS Assay for Inhibitors of Recombinant Selenoprotein Glutathione Peroxidase 4 (GPX4) (AID 1845192); settings: activity change, negative = inhibition: at 50 µM (top of the series) unless noted; further: nearly all actives have a fitted effect of over 65% in size; further: potency means the concentration at half of the fitted maximal effect; on activity change, negative = inhibition: on the % scale 0 is the no-effect control and ±100 the full control effect
Outline: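 GR-coupled readout: 100 nM GR, 1 mM GSH, 0.5 mM NADPH; NADPH fluorescence (ex 340/em 450 nm) read at t=0 and after 15 min RT. GPX4 200 nM, preincubated 30 min with compound; substrate 0.5 mM CHP.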

[14] = qHTS Assay for Identification of Small Molecule Agonists for Thrombopoietin (TPO) Signaling Pathway (AID 917); further: potency means the concentration at half of the fitted maximal effect
Outline: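 Murine Ba/F3 cells stably expressing human TPO receptor and a Glycoprotein IIb promoter–luciferase reporter were IL-3-starved overnight, then treated with compounds plus TPO (26 pM final, its EC50) for 24 hrs at 37 C; luminescence was read.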

[15] = molecular target: Ferritin light chain (Equus caballus) (UniProt P02791); experiment: qHTS Validation Assay for Identification of Novel General Anesthetics (AID 2323); further: potency means the concentration at half of the fitted maximal effect
Outline: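 Competitive displacement of profluorescent 1-aminoanthracene (1-AMA, 50% saturated solution in PBS) from 10 uM horse-spleen apoferritin. Compounds incubated 10 min at room temperature; fluorescence read at 380 nm excitation/535 nm emission, normalized to free 1-AMA and complex, fitted with four-parameter Hill equation.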

[16] = molecular target: ATPase family AAA domain-containing protein 5 (Homo sapiens) (UniProt Q96QE3); experiment: Validation screen for small molecules that inhibit ELG1-dependent DNA repair in human embryonic kidney (HEK293T) cells expressing luciferase-tagged ELG1 (AID 493107); settings: HEK293T ELG1-luciferase level, luminescence, 5-fluorouridine co-treatment, 16 h; activity change, negative = decrease: at 46.1 µM (top of the series); further: nearly all actives have a fitted effect of over 70% in size; further: potency means the concentration at half of the fitted maximal effect;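 on activity change, negative = decrease: cells co-treated with the DNA-damaging agent 5-fluorouridine alongside compound; on the % scale 0 is the no-effect control and ±100 the full control effect; inhibitors lower the ELG1-luciferase luminescence signal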
Outline: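 HEK293T cells expressing luciferase-tagged ELG1, 2,000 per well, treated with 5-fluorouridine plus compound for 16 h at 37 C. ONE-Glo luminescence after 30 min at room temperature reports ELG1 reporter level.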

[17] = molecular target: Calcium and integrin-binding protein 1 (Homo sapiens) (UniProt Q99828); experiment: Validation qHTS for Identification of Calcium Integrin Binding protein 1 (CIB1) Competitor (AID 1508618); further: potency means the concentration at half of the fitted maximal effect
Outline: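 Fluorescence polarization with 1 uM CIB1-GST and 100 nM FITC-alphaIIb peptide in HEPES pH 7.4, NaCl, 5 mM CaCl2, Tween20. Compounds at up to 114 uM final, preincubated with protein 15 min; read after 15 min more at RT.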
Tags describe the fitted curve by direction and shape.

UniProt O94925, sequence (O94925 whole entry, looked up, canonical isoform): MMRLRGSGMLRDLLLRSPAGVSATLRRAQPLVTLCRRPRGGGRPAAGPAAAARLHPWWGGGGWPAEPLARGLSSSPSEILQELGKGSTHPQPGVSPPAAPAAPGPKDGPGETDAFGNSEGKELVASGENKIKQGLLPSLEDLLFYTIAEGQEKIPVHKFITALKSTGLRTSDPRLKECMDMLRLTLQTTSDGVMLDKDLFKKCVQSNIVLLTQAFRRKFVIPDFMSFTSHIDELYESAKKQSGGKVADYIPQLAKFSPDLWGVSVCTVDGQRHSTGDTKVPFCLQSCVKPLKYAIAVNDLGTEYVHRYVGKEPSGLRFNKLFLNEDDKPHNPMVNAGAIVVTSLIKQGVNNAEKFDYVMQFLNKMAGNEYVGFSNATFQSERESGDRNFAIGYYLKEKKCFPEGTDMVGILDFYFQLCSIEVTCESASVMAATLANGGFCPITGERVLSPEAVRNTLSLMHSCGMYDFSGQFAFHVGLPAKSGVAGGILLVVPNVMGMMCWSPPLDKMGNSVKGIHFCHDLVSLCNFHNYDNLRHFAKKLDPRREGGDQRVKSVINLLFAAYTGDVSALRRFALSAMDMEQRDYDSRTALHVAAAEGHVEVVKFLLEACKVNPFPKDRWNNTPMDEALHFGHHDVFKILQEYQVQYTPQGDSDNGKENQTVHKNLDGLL
UniProt Q96QE3, sequence (Q96QE3 whole entry, looked up, the tested form may be a part): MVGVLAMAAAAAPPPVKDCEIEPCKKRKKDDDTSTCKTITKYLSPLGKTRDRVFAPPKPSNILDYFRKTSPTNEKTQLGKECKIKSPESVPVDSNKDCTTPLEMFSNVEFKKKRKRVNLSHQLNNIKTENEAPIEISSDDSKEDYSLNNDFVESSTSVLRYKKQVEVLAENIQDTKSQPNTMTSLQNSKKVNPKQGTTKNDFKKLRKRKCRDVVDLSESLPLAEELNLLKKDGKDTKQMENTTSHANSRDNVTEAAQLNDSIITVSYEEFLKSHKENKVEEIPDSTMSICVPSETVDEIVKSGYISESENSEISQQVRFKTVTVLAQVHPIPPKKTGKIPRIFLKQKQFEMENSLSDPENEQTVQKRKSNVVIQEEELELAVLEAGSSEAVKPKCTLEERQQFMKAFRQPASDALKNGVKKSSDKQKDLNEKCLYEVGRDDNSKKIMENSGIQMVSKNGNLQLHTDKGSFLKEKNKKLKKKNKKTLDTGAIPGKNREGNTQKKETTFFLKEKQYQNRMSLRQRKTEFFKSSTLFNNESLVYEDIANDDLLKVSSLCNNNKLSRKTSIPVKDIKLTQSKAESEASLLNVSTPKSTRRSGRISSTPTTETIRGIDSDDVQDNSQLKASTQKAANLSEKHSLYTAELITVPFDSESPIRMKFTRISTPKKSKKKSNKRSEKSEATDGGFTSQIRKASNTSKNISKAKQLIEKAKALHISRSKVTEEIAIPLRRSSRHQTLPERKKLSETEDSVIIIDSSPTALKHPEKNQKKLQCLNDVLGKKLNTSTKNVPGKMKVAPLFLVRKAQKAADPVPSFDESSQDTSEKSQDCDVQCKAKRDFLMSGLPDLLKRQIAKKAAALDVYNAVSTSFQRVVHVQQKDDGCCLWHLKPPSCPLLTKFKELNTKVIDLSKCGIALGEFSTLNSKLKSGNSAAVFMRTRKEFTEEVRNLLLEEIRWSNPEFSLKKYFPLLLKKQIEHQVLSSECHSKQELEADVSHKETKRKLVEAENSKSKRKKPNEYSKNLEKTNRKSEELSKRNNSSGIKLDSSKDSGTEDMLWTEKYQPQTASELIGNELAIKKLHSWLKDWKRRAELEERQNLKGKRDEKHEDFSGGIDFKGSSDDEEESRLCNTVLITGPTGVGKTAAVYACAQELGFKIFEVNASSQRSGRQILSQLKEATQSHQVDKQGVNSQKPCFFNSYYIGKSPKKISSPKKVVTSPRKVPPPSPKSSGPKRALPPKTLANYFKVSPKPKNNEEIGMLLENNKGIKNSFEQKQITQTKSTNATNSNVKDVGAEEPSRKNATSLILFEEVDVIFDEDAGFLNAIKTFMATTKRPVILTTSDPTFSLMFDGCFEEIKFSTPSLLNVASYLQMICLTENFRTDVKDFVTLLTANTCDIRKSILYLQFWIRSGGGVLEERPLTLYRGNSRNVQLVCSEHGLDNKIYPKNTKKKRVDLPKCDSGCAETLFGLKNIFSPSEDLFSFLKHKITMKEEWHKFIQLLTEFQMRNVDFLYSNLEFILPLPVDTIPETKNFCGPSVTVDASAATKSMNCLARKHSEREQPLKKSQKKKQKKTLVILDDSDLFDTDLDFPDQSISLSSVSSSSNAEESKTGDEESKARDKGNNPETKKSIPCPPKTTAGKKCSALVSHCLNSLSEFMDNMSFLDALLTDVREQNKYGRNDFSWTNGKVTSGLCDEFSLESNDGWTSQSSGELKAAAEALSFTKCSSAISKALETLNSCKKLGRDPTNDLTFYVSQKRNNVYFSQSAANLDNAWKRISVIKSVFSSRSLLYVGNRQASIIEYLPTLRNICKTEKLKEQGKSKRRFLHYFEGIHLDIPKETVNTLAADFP
UniProt P08482, sequence (P08482 whole entry, looked up): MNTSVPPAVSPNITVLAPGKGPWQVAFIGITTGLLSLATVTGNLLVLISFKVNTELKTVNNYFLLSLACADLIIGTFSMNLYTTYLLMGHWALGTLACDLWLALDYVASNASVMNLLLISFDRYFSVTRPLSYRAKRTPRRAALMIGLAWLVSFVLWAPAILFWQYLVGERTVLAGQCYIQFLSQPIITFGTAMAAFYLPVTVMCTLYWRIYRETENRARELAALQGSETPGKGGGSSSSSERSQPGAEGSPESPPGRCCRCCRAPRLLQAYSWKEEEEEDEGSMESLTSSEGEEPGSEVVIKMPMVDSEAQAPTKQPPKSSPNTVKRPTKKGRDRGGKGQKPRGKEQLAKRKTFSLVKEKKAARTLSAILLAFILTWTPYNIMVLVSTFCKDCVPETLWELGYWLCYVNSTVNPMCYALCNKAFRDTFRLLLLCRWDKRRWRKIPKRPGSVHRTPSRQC
UniProt Q99828, sequence (Q99828 whole entry, looked up): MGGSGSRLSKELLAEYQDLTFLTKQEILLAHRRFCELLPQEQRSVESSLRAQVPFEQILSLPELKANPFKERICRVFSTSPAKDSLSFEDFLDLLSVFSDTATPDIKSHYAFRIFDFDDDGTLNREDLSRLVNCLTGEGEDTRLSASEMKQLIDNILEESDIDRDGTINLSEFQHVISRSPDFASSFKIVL
UniProt P00784, sequence (P00784 whole entry, looked up): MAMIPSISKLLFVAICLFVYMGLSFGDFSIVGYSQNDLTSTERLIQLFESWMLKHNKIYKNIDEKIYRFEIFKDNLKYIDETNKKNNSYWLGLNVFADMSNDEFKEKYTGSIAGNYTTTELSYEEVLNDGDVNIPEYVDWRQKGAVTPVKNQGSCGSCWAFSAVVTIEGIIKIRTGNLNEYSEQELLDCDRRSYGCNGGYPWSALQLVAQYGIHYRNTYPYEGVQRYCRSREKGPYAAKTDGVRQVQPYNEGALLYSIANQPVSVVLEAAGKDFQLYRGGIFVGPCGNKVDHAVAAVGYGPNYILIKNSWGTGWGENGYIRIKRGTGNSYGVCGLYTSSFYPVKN
UniProt P36969, sequence (P36969 whole entry, looked up): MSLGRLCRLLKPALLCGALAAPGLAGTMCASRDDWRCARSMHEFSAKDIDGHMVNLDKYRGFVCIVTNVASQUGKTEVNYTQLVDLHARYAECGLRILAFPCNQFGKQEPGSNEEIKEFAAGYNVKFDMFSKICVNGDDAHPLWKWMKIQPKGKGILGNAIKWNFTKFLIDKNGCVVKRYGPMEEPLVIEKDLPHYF
UniProt O94782, sequence (O94782 whole entry, looked up): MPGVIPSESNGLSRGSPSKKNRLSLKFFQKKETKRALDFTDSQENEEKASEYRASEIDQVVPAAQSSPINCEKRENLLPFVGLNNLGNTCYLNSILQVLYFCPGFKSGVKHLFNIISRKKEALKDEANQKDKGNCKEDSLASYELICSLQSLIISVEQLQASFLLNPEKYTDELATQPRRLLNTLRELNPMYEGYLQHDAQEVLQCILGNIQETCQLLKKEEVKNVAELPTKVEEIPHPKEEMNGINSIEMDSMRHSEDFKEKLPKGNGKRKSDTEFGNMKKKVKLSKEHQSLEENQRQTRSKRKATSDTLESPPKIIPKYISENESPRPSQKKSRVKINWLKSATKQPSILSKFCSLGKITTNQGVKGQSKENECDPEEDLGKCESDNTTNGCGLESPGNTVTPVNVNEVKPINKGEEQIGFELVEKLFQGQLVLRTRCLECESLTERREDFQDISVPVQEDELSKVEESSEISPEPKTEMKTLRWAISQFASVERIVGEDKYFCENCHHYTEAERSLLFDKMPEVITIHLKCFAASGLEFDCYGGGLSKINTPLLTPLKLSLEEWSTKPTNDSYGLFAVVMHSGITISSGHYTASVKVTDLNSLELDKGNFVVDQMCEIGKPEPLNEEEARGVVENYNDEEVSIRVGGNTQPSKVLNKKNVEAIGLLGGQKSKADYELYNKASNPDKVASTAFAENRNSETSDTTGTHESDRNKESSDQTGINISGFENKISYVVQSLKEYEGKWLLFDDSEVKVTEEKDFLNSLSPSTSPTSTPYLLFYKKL
UniProt O89049, sequence (O89049 whole entry, looked up): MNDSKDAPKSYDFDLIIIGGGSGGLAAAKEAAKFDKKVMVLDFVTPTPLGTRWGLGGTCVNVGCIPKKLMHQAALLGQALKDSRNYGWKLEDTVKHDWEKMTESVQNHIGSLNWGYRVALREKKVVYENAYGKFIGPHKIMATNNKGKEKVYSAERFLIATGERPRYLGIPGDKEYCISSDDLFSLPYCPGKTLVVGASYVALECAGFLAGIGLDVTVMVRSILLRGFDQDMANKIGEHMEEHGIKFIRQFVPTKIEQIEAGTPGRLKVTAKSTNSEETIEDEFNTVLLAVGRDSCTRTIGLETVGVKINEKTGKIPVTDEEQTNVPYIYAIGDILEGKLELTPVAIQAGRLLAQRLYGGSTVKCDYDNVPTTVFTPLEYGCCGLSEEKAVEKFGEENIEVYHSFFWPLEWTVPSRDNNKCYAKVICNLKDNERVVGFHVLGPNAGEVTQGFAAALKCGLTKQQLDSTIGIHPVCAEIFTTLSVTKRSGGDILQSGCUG

**Q.** Which Potency [1] does the source give for `C=CCN1CCc2c(cc(O)c(O)c2Br)[C@@H](c2ccccc2)C1` here?
**A.** active: 11.2 µM

**Q.** And the Potency [2]?
**A.** inconclusive: 100 µM [inhibitor, partial curve, poor fit]

**Q.** What about the Potency [3] of the same compound?
**A.** inconclusive: 22.4 µM [inhibitor, partial curve]

**Q.** What about the Potency [4] of the same compound?
**A.** inconclusive: 0.708 µM [inhibitor, full curve, poor fit]

**Q.** What about the Potency [5] of the same compound?
**A.** inactive

**Q.** What does the source list for `O=C(O)Cc1c[nH]c2ccc(O)cc12`?
**A.** activity, negative = inhibition [6]: inconclusive: 71.5% [activator]; Potency [7]: inconclusive: 2.24 µM [inhibitor, full curve, poor fit]; Potency [8]: inconclusive: 18.5 µM [inhibitor, single point]; Potency [9]: inconclusive: 21.2 µM [inhibitor, single point]; Potency [10]: inconclusive: 28.2 µM [cytotoxic, single point]

**Q.** For `c1ccc2nc(C3=NCCN3)ccc2c1`, which Potency [11] is on record?
**A.** inconclusive: 12.6 µM [activator, partial curve, poor fit]

**Q.** And the Potency [12]?
**A.** inconclusive: 31.6 µM [inhibitor, partial curve, poor fit]

**Q.** And the Potency [3]?
**A.** inactive

**Q.** What about the Potency [13] of the same compound?
**A.** inactive

**Q.** With `NCCCCN` as the compound, how does the Potency [11] read?
**A.** inconclusive: 20 µM [activator, partial curve, poor fit]

**Q.** And the Potency [14]?
**A.** inactive

**Q.** What about the Potency [12] of the same compound?
**A.** inactive

**Q.** What about the Potency [1] of the same compound?
**A.** inactive

**Q.** What about the Potency [3] of the same compound?
**A.** inactive

**Q.** With `CCCCCCCCCC(=O)NC(CN1CCOCC1)[C@H](O)c1ccccc1` (stereo not given in full) as the compound, how does the Potency [15] read?
**A.** inconclusive: 44.7 µM [inhibitor, partial curve, poor fit]

**Q.** And the Potency [8]?
**A.** inconclusive: 11.7 µM [inhibitor, single point]

**Q.** And the Potency [16]?
**A.** inactive

**Q.** And the Potency [3]?
**A.** inconclusive: 35.5 µM [inhibitor, single point]

**Q.** What about the Potency [5] of the same compound?
**A.** inactive

**Q.** Which results are given for `Cc1ccccc1/C=C/C1=NCCN1`?
**A.** Potency [7]: inconclusive: 5.01 µM [inhibitor, full curve, poor fit]; Potency [1]: inconclusive: 11.2 µM [inhibitor, partial curve]; Potency [8]: inconclusive: 18.5 µM [inhibitor, single point]; Potency [10]: inconclusive: 39.8 µM [cytotoxic, single point]; Potency [3]: inconclusive: 39.8 µM [inhibitor, single point]

**Q.** What does the source list for `CCCc1c(OCCCOc2ccc(OCC(=O)O)cc2)ccc(C(C)=O)c1O`?
**A.** Potency [12]: inactive; Potency [7]: inconclusive: 5.01 µM [inhibitor, full curve, poor fit]; Potency [16]: inactive; Potency [2]: active: 79.4 µM; Potency [17]: inconclusive: 50.1 µM [inhibitor, partial curve]; Potency [5]: inconclusive: 28.2 µM [inhibitor, single point]; Potency [13]: inconclusive: 32.1 µM [inhibitor, single point]

**Q.** Which Potency [11] does the source give for `NC(N)=[N+]1CCc2ccccc2C1` here?
**A.** inconclusive: 0.126 µM [activator, partial curve]

**Q.** What about the Potency [12] of the same compound?
**A.** inconclusive: 7.94 µM [inhibitor, full curve, poor fit]

**Q.** What about the Potency [1] of the same compound?
**A.** inactive

**Q.** And the Potency [5]?
**A.** inactive

**Q.** With `CC(C)NC[C@H](O)c1ccc(O)c(O)c1` as the compound, how does the activity, negative = inhibition [6] read?
**A.** inconclusive: -32.4% [inhibitor]

**Q.** What about the Potency [11] of the same compound?
**A.** inconclusive: 0.0251 µM [activator, full curve, poor fit]

**Q.** And the Potency [8]?
**A.** inactive

**Q.** What about the Potency [10] of the same compound?
**A.** inconclusive: 39.8 µM [cytotoxic, single point]

**Q.** And the Potency [3]?
**A.** inconclusive: 7.94 µM [inhibitor, full curve, poor fit] and inconclusive: 31.6 µM [inhibitor, partial curve, poor fit]

**Q.** And the Potency [4]?
**A.** active: 5.01 µM

**Q.** What about the Potency [17] of the same compound?
**A.** inactive

**Q.** And the Potency [5]?
**A.** active: 1.12 µM

**Q.** For `COc1cc(N)c(Cl)cc1C(=O)OCCN1CCCCC1`, which Potency [14] is on record?
**A.** inactive

**Q.** And the Potency [12]?
**A.** inconclusive: 7.94 µM [inhibitor, full curve, poor fit]

**Q.** And the Potency [7]?
**A.** inconclusive: 2.82 µM [inhibitor, partial curve, poor fit]

**Q.** What about the Potency [9] of the same compound?
**A.** inactive

**Q.** What about the Potency [16] of the same compound?
**A.** inactive

**Q.** For `CC1=C(C(=O)O)N2C(=O)[C@@H](NC(=O)C(N)C3=CCC=CC3)[C@H]2SC1` (stereo not given in full), which Potency [7] is on record?
**A.** inactive

**Q.** What about the Potency [8] of the same compound?
**A.** inactive

**Q.** And the Potency [4]?
**A.** inconclusive: 12.6 µM [inhibitor, partial curve]

**Q.** What does the source list for `NC(N)=NC(N)=Nc1cccc(Cl)c1`?
**A.** Potency [11]: inactive; Potency [14]: inconclusive: 3.16 µM [inhibitor, partial curve]; Potency [1]: inconclusive: 12.6 µM [inhibitor, partial curve]; Potency [8]: active: 9.28 µM; Potency [13]: inactive

**Q.** Which Potency [16] does the source give for `O=c1ccn([C@@H]2O[C@H](COP(=O)(O)OP(=O)(O)O)[C@@H](O)[C@H]2O)c(=O)[nH]1` here?
**A.** inconclusive: 29.1 µM [inhibitor, single point]

**Q.** For `CC1(C)O[C@@]2(C)CC[C@@H]1C[C@@H]2OC1OC(CO)C(O)C(O)C1O` (stereo not given in full), which Potency [13] is on record?
**A.** inactive

**Q.** With `O=C(c1ccc2c(c1)OCCO2)N1CCCCC1` as the compound, how does the Potency [7] read?
**A.** inconclusive: 2.51 µM [inhibitor, partial curve, poor fit]

**Q.** And the Potency [16]?
**A.** inconclusive: 23.1 µM [activator, single point]
